Sequences and labels used below:
B1: RBBP5_(WDRP) (RBBP5_([…])) (domain or fragment)
chain: not shown
notes: also called WD40 repeat proximal region
B2: full-length RBBP5 (RBBP5_([…])) (natural protein)
chain: not shown
notes: The methods also say that RBBP5 WD40-containing constructs were made as His-Sumo fusions in Rosetta cells and cut with Ulp1; also called RBBP5FL
B3: MLL1_(WIN-SET) (MLL1_([…])) containing both WIN motif and SET domain (domain or fragment)
chain: not shown
notes: MLL1 (KMT2A), […] (WIN motif and SET domain)

The target of one experiment is WDR5Δ22 (WDR5_(23–334)) (UniProt P61964). In words: ITC; RBBP5 constructs with WDR5_(23–334); 150 mM NaCl, 25 mM Tris–HCl pH 8.0; 20°C; one-site model. The conditions noted are these: both partners purified. In general terms: Isothermal titration calorimetry measures the heat released or taken up as one component is titrated into another.
Experiment [1] deals with B2. The experiment is described as follows: cross-linking; SEC-purified MLL1_(3754–3969)–WDR5_(23–334)–RBBP5FL–ASH2LFL complex, 5 μM, zero-length cross-linker EDC/Sulfo-NHS; 150 mM NaCl, 25 mM HEPES pH 7.0; room temperature; LC-MS/MS, pLink2. The conditions noted are these: both partners purified.

On to B1, for which, in the experiment with WDR5Δ22 (WDR5_(23–334)), the binding result is recorded as “binds”.

With B2, in the experiment with WDR5Δ22 (WDR5_(23–334)), the binding result is “binds”.

With B3, the binding result in experiment [1] is on record as “binds”.

The record behind these values is publication PMC6821195, “The internal interaction in RBBP5 regulates assembly and activity of MLL1 methyltransferase complex” (Nucleic Acids Research, 2019).
